Results from ChEMBL document CHEMBL1157539, “Thousands of chemical starting points for antimalarial lead identification” (Nature, 2010).
In all, about 13,000 compounds were measured (“IFI”: median about 4, highest 2% from about 17 on). The list shows a part of the results.

Test: GSK_TCMDC: Inhibition Frequency Index (IFI). The number of non-kinase HTS assays where a compound showed > 50 % inhibition, expressed as a percentage of the number of such assays in which the compound was tested (-0 is zero)
Assay type: functional
In the case of `CCC(=O)N1CCc2cc(Br)cc(S(=O)(=O)N3CC(C)CC(C)C3)c21` (centres undefined), the IFI is reported as 0%. Work on `Cc1cc(N[C@@H](CC(C)C)C(=O)Nc2ccccc2)nc(NCCc2ccccc2)n1` yielded an IFI of 11.4%. `O=C(NC1CCN(Cc2ccccc2O)C1)c1cccc(C(F)(F)F)c1` (centres undefined) showed an IFI of 2.13%. For `COc1ccc(-c2cccc(NC(=O)c3ccccc3)c2)cc1CN1CCCN(C)CC1`, the IFI was 5.83%. `COc1ccc(Cl)cc1NC(=O)Nc1ccnc2ccccc12` showed an IFI of 2.17%. Compound `Cc1cc(N/N=C/c2cccc([N+](=O)[O-])c2)c2ccccc2n1` has an IFI of 1.52%. With `Cc1ccc(CNC(=O)[C@H](CCCN)Nc2cc(C)nc(NCC3CCCCC3)n2)cc1` the IFI was 4.88%. In the case of `COc1ccc(CNCc2cccc(-c3ccc(-c4nc5cccc(C)c5[nH]4)s3)c2)cc1`, the IFI is reported as 10.4%. Work on `COc1cccc(NC(=O)c2ccc(NCCCN3CC(C)CC(C)C3)c([N+](=O)[O-])c2)c1` (centres undefined) yielded an IFI of 3.7%. In the case of `c1ccc2[nH]c(-c3ccc(-c4ccc(CN5CCN(CCN6CCOCC6)CC5)cc4)cc3)nc2c1`, the IFI is reported as 4.23%. `CCCCN1CCN(c2cc(NS(=O)(=O)c3cccc(C(=O)Nc4ccc(C(F)(F)F)cc4)c3)ccc2OC)CC1` showed an IFI of 3.55%. Work on `CC1(C)NC(N)=NC(=N)N1OCCCOc1cccc(Cl)c1` yielded an IFI of 4.2%. With `O=C(NCCN1CCCC1)c1ccc(-c2ccc(-c3nc4ccccc4[nH]3)s2)cc1` the IFI was 4.55%. Compound `COc1ccc(NC(=O)c2cn(-c3ccc(C(C)(C)C)cc3)nc2C)cc1N1CCN(C)CC1` has an IFI of 8.93%. Compound `CC(O)C1CCCCN1C(=O)c1cccc(-c2ccc(-c3nc4ccccc4[nH]3)s2)c1` (centres undefined) has an IFI of 6.6%. For `O=C(NCCN1CCOCC1)c1ccc(CNC(=O)c2ccc(O)c(-c3ccc(Cl)c(Cl)c3)c2)cc1`, the IFI was 0.74%. With `O=C(NC1CCN(c2ccnc3cc(Cl)ccc23)C1)c1ccc(C(F)(F)F)cc1` (centres undefined) the IFI was 12.1%. Compound `Nc1c2c(nc3ccc(NC(=O)CCCc4ccccc4)cc13)CCCC2` has an IFI of 8.9%. Compound `Cc1ccc(C(=O)NC2CC2)cc1-c1ccc2c(cnn2S(=O)(=O)c2ccc(F)cc2)c1` has an IFI of 2.84%. Compound `CC(C)c1cccc(OCC2CCN(c3ncc(C(=O)NC4CC4)cc3Cl)CC2)c1` has an IFI of 2.08%. In the case of `N#Cc1cccc(Nc2nccc(NCC(O)c3ccccc3C(F)(F)F)n2)c1` (centres undefined), the IFI is reported as 19.2%. Compound `COc1cc2nc(C)nc(Nc3ccc(Oc4ccccc4)cc3)c2cc1OC` has an IFI of 2.92%. In the case of `COc1ccc2nccc([C@@H](O)CN3CCC(NCc4nc5c(OCc6ccccc6)cccc5[nH]4)CC3)c2c1`, the IFI is reported as 2.94%. In the case of `Cc1ccc2[nH]c(C)cc(=NN=Cc3cccc(Cl)c3)c2c1`, the IFI is reported as 3.57%. `O=C(Nc1ccc2c(c1)OCO2)NC1CCN(c2ccnc(NCc3ccc(F)cc3)n2)CC1` showed an IFI of 10.6%. Work on `COC(=O)c1cc(C(O)CNC(C)CCc2cccc(F)c2)ccc1O` (centres undefined) yielded an IFI of 1.44%. With `CCOc1ccc(-n2nc3c(Cl)nnc(-c4ccccc4)c3c2-c2ccccc2)cc1` the IFI was 1.56%. In the case of `Cn1cncc1C(=O)Nc1cccc(-c2csc(-c3nc4ccccc4[nH]3)c2)c1`, the IFI is reported as 2.78%. With `COc1ccc2nccc([C@@H](O)CN3CCC(NCCOc4cccc(C(F)(F)F)c4Cl)CC3)c2c1` the IFI was 3.65%. Compound `Nc1nc(N)c2cc(NS(=O)(=O)c3ccc(-c4ccccc4)cc3)ccc2n1` has an IFI of 4.48%. `N#Cc1cccc(C(O)CN(Cc2ccccc2)Cc2ccccc2)c1` (centres undefined) gave an IFI of 2.11%. With `CC[C@H](N/C(=N\c1cccc(Cl)c1Cl)Nc1ccc(C#N)cc1O)c1ccccc1` the IFI was 3.57%. For `N=c1cc(C=Cc2ccc(O)cc2)[nH]c2ccccc12`, the IFI was 1.38%. Compound `COc1ccc(CNCc2cccc(-c3ccc(-c4nc5cccc(C)c5[nH]4)cc3)c2)cc1` has an IFI of 10.5%. Work on `CCCNC[C@@H](O)[C@H](Cc1ccccc1)NC(=O)c1cc(NCC)cc(N2CCCCS2(=O)=O)c1` yielded an IFI of 0.74%. Compound `COc1ccc2nccc([C@@H](O)CN3CCC(NC(=O)/C=C/c4cc(F)cc(NC(C)=O)c4)CC3)c2c1` has an IFI of 2.94%. With `Oc1ccc(OCc2ccccn2)cc1` the IFI was 0.71%. For `O=C(CCc1c[nH]cn1)Nc1cccc(-c2ccc(-c3nc4cc(F)ccc4[nH]3)cc2)c1`, the IFI was 3.48%. `COCCNCc1cccc(C#Cc2cc3ncnc(Nc4ccc(OCc5cccc(F)c5)c(Cl)c4)c3s2)n1` showed an IFI of 4.41%. `CCOC(=O)c1cn(CC)c2cc(N(C)CCc3ccc(OC)c(OC)c3)c(F)cc2c1=O` gave an IFI of 0.74%. `COc1ccc(-c2nc3c4ccccc4c4ccc(I)cc4c3[nH]2)cc1` gave an IFI of 3.03%. With `N=C(N)NN=CC(=O)Nc1ccc(Cl)c(C(F)(F)F)c1` the IFI was 1.5%. `COc1ccc2nc(C)cc(Nc3ccc(Cl)c(Cl)c3)c2c1` showed an IFI of 5.47%. In the case of `Cc1cc(N[C@@H](CC(C)C)C(=O)NCCOc2ccccc2)nc(NCCc2ccc(F)cc2)n1`, the IFI is reported as 11.4%. In the case of `O=C(NC1CCN(CCC[C@]2(c3ccc(Cl)c(Cl)c3)CCCN(C(=O)c3ccccc3)C2)CC1)c1ccc(F)cc1`, the IFI is reported as 11.2%. In the case of `CN(c1ccc(NC(=O)Nc2cc(C(F)(F)F)ccc2F)cc1)c1ccnc(NCCN2CCCC2)n1`, the IFI is reported as 3.88%. `CC(C)CCN1CCC(Oc2ccc(NC(=O)c3ccccc3)cc2Cl)CC1` gave an IFI of 4.84%. With `CC(=O)c1ccc(-c2ccc(C(=O)NCCCCN3CCC(c4ccc5c(c4O)CCCC5)CC3)cc2)cc1` the IFI was 11.2%. Compound `N#Cc1ccc(N2CCN(Cc3cccc(-c4cccc(-c5nc6cc(F)ccc6[nH]5)c4)c3)CC2)nc1` has an IFI of 1.98%. Work on `Cc1cc(N(C)C)nc(Nc2ccc(NC(=O)c3ccccc3Cl)cc2)n1` yielded an IFI of 2.7%. For `CNc1nc(Nc2ccccc2C)nc2ccccc12`, the IFI was 2.21%. With `N#Cc1cncc(-c2nc3c(N4CCC(N5CCCC5)CC4)cccc3n2CCNCc2ccccc2)c1` the IFI was -0%. Work on `Brc1ccc(Nc2nc3ccccc3nc2Nc2ccc(Br)cc2)cc1` yielded an IFI of 8.57%. With `COc1cc2nc(N(C)C)nc(Nc3ccc(OCc4ccccc4)cc3)c2cc1OC` the IFI was 6.72%. Work on `CN(CCCCCNC(=O)/C=C/c1ccc(Cl)c(Cl)c1)CCCCc1c[nH]c2ccccc12` yielded an IFI of 6.11%. `COc1ccc2ncc(F)c(CCN3CCC(CNCc4cccc5c4OCO5)CC3)c2n1` showed an IFI of 6.67%. `O=C(Cn1c(CCc2cccc(F)c2F)nc(=O)c2ccccc21)N(Cc1ccc(-c2ccc(C(F)(F)F)cc2)cc1)C1CCN(C2CCSCC2)CC1` gave an IFI of 8.24%. For `Cc1cccc2nc(-c3ccc(-c4ccc(CNCCN5CCNCC5)cc4)s3)[nH]c12`, the IFI was 5%. `COc1ccc(-c2cnc3[nH]cc(-c4ccc(C(=O)O)cc4)c3c2)cn1` gave an IFI of 6.36%.
